# Laboratory results reported in PubChem BioAssay AID686970 (National Center for Advancing Translational Sciences (NCATS), 2013).
# Screen size: about 360,000 compounds; about 6,000 (1.7%) were called active. The shares of active, inactive and inconclusive entries below differ from those in the screen. Calls follow the shape of the dose curve; as a rule, active = well fitted cell-killing curve with a large enough effect; inconclusive = small, poorly fitted or top-dose-only effect, or effect the other way; inactive = flat fitted curve, though single readings scatter. Potencies of inconclusive entries are left out as doubtful fits.
# Test: qHTS for induction of synthetic lethality in tumor cells producing 2HG: qHTS for the HT-1080-NT fibrosarcoma cell line;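 also: NT is the 2HG producing partner of a matched IDH1 knockdown line; nearly all actives have a fitted effect of over 55% in size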;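 as to activity, negative = less viability: 0% = DMSO-treated cells and -100% = media-only wells without cells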
# Settings: HT-1080-NT fibrosarcoma viability, CellTiter-Glo ATP luminescence, 48 h; activity, negative = less viability: at 46.1 µM (top of the series) unless noted
# Method in brief: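 Compounds were tested in concentration-response format on HT-1080-NT cells for 48 hours at 37 degrees C. Cell viability came from CellTiter-Glo luminescence; curves were classified by r2, response magnitude and activity.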
# Potency is read from the fitted curve at half-maximal effect; tags tell the direction and shape of the fitted curve.
SMILES,Potency,"activity, negative = less viability"
Cc1ccc(C(=O)NN=Cc2ccc3c(c2)OCO3)cc1,"inconclusive [cytotoxic, single point]",
CC(=O)c1cccc(NC(=O)CSc2ccc(-c3ccccn3)nn2)c1,"inconclusive [cytotoxic, single point]",
COc1ccc(CN(CCC(c2ccccc2)c2ccc(OC(C)C)cc2)C(=O)CCl)cc1OC (stereo not given),active: 1.46 µM,
O=S(=O)(c1ccccc1)N1CCN(Cc2c(O)ccc3ccccc23)CC1,,inactive: -3.07%
CN1CCN(CC(=O)Nc2ccccc2Oc2ccccc2)CC1,,inactive: -6.36%
O=C1NC2c3c(Cl)sc(Cl)c3C(=O)C2O1 (stereo not given),"inconclusive [cytotoxic, single point]",
Cc1ccc(N2CC(C(=O)Nc3ccc(N4CCOCC4)cc3)CC2=O)cc1C (stereo not given),"inconclusive [cytotoxic, single point]",
CC1CCN(Cc2ccc(NC(=O)C3CCN(c4nnc(-n5cccc5)s4)CC3)cc2)CC1,,inactive: -14.6%
S=c1[nH]nc(-c2ccc(Cl)cc2)n1/N=C/c1cccs1,,inactive: -22.1%
COC(=O)[C@@H](Cc1c[nH]c2ccccc12)NC(=O)CCC(=O)c1ccc(Br)cc1,,inactive: 0.36%
O=C(O)CCCCCN1C(=O)/C(=C/c2cn(-c3ccccc3)nc2-c2cccs2)SC1=S,"inconclusive [cytotoxic, single point]",
Cc1ccc(O)c(N)c1,"inconclusive [cytotoxic, partial curve]",
COc1ccc(S(=O)(=O)N2CCCCCC2)cc1C(=O)N(C)Cc1ccc(C(C)(C)C)cc1,"inconclusive [cytotoxic, single point]",
CC1CCN(C(=O)/C(=C/c2ccccc2Cl)c2ccccc2)CC1,"inconclusive [cytotoxic, single point]",
CCc1cccc(NC(=O)CCCN2C(=O)NC(C)(C)C2=O)c1,,inactive: 2.44%
O=C(NCC1(c2ccccc2)CCCC1)c1ccc(Br)o1,,inactive: 1.89%
Cc1cccc(NC(=O)c2nc[nH]c2C(=O)N[C@@H](C)c2ccccc2)c1,"inconclusive [cytotoxic, single point]",
Cc1ccc(N=Cc2cc3c(cc2O)OC(N)=C(C#N)C3c2ccccc2)cc1 (stereo not given),"inconclusive [cytotoxic, partial curve]",
COc1ccc(NC(=O)C(C)N2c3cccc4cccc(c34)S2(=O)=O)cc1OC (stereo not given),"inconclusive [cytotoxic, single point]",
COCc1ccc(CN2CCCC(C(=O)Nc3ccc(-c4cccc(OC)c4)cc3)C2)o1 (stereo not given),"inconclusive [cytotoxic, single point]",
O=C(C1CCCN(S(=O)(=O)c2cccc3nsnc23)C1)N1CCCCCC1 (stereo not given),,inactive: 13.6%
COC(=O)c1ccc2c(=O)n(Cc3ccc(C(=O)NCCCN4CCOCC4)cc3)c(=S)[nH]c2c1,"inconclusive [cytotoxic, single point]",
Cc1ccc(-c2cnc(C(O)c3cc(C)cc(C)c3)[nH]2)cc1 (stereo not given),,inactive: -5.22%
CCCOc1ccc(C(=O)c2ccccc2C(=O)OC2CCOC2=O)cc1OCCC (stereo not given),"inconclusive [cytotoxic, single point]",

SMILES,Potency,"activity, negative = less viability"
COc1ccc(Br)cc1C(=O)Nc1ccccc1N1CCCC1,"inconclusive [cytotoxic, single point]",
C/C(=N\NC(=O)CCc1ccccc1)C1C(=O)c2ccccc2C1=O,"inconclusive [cytotoxic, single point]",
O=C(CCCc1nc(-c2ccc(Cl)cc2)no1)NC1CCCC1,"inconclusive [cytotoxic, single point]",
C(=N\Nc1nc2ccccc2[nH]1)/c1cccc2nccnc12,"inconclusive [cytotoxic, full curve]",
CC(C)CC1C(=O)N(Cc2cn(CCC3OCCO3)nn2)CCS(=O)(=O)N1Cc1ccc(-c2ccc(Cl)c(Cl)c2)cc1 (stereo not given),"inconclusive [cytotoxic, single point]",
CC(C)(C)C1CCc2c(sc(NC(=O)C3CC=CCC3C(=O)O)c2C#N)C1 (stereo not given),"inconclusive [cytotoxic, single point]",
CN(C)CCCN1c2ccc(O)cc2Sc2ccc(Cl)cc21,"inconclusive [cytotoxic, partial curve]",
COC(=O)c1sccc1NC(=O)CN(C)NS(=O)(=O)c1ccc(F)cc1,"inconclusive [cytotoxic, single point]",
CCOC(=O)c1sc(Nc2ccccc2)nc1C,"inconclusive [cytotoxic, single point]",
COc1cc(NC(=O)c2cccc([N+](=O)[O-])c2C)ccc1NC(=O)c1ccco1,,inactive: -2.71%
CCOc1ccc(-c2nc(CSCC(=O)NC3CC3)c(C)o2)cc1,,inactive: 2.17%
Cc1cccc(Nc2nc(N)nc(CN3CCN(c4ccccc4F)CC3)n2)c1,"inconclusive [rising, single point]",
CS(=O)(=O)N(Cc1ccc(C(=O)Nc2ccccc2Sc2ccccc2)cc1)c1ccccc1,"inconclusive [cytotoxic, single point]",
CCn1c(=O)c(CCC(=O)N2CCN(c3ccccn3)CC2)c(C)c2c(C)nn(-c3ccccc3)c21,"inconclusive [rising, single point]",
COc1ccc(Cl)c2sc(NC(=O)C3=COCCO3)nc12,"inconclusive [cytotoxic, single point]",
CCCCNS(=O)(=O)c1ccc(NC(=O)C(Sc2ccccc2)c2ccccc2)cc1 (stereo not given),"inconclusive [cytotoxic, single point]",
CN(C)CCNS(=O)(=O)c1ccc(N2CCc3ccccc32)c([N+](=O)[O-])c1,"inconclusive [cytotoxic, partial curve]",
C#CNC(=O)C1(CC=C)CCNCC1,,inactive: 8.38%
COCCCn1c(SCCc2ccccc2)nc2cc(OC)c(OC)cc2c1=N,"inconclusive [cytotoxic, single point]",
Cc1ccc2[nH]cc(C(=O)CCl)c2c1,active: 16.4 µM,
Cc1c(Cl)sn(-c2ccc(Cl)cc2)c1=O,active: 25.9 µM,
CCOC(=O)N1CCN(C(=O)C[C@@H]2C[C@@]3(C(=O)OCC)CCC=C3N(Cc3ccc4c(c3)OCO4)C2=O)CC1,"inconclusive [rising, single point]",
CCC(CC)C(=O)N(C)c1c(C)nc2c(OCc3ccc(Cl)cc3Cl)cccn12,"inconclusive [cytotoxic, single point]",
CN(C)CCC(=O)c1ccc2c(c1)OCO2,,inactive: 2.67%

SMILES,Potency,"activity, negative = less viability"
COc1ccc(CCN(Cc2cccs2)S(=O)(=O)c2ccc(C(=O)O)cc2)cc1OC,,inactive: -6.82%
Cc1ccccc1OCC(O)Cn1c(NCc2ccco2)nc2c1c(=O)[nH]c(=O)n2C (stereo not given),"inconclusive [cytotoxic, single point]",
Cc1cc(C)n(C(=O)c2ccc(C)o2)n1,,inconclusive: 30.9%
CCOc1ccc(C(=O)CCC(=O)NN2CCCCC2)cc1,,inactive: 12.6%
CCOC(=O)N1CCC(NC(=O)CCc2c(C)nc3c(c(C)nn3C(C)(C)C)c2C)CC1,"inconclusive [cytotoxic, single point]",
CCOC(=O)CSC(CC)C(=O)Nc1nnc(C(C)C)s1 (stereo not given),"inconclusive [rising, single point]",
Cc1ccc(C2=CSC3=NCCN23)cc1,,inactive: 5.85%
CC(C)C[C@H](N)c1cn([C@@H](CCCCN)C(=O)N2CCNCC2)nn1,active: 1.64 µM,
CC(/C=N/NC(=O)c1cc(-c2ccc3ccccc3c2)n[nH]1)=C\c1ccco1,"inconclusive [cytotoxic, single point]",
COc1cc(NC(=O)c2cccs2)c(OC)cc1NC(=O)CCC(=O)Nc1ccc2ncccc2c1,"inconclusive [cytotoxic, single point]",
O=C(c1c(F)c(F)c(F)c(F)c1F)N1CCN(c2cccc(C(F)(F)F)c2)CC1,"inconclusive [cytotoxic, single point]",
CC(=O)N1CCN(C(=O)c2cc(-c3ccc(C)o3)nc3ccccc23)CC1,"inconclusive [cytotoxic, partial curve]",
COC(=O)C(CC(=O)c1ccc(Cl)cc1)c1ccc(C)cc1 (stereo not given),"inconclusive [rising, full curve]",
CC(C)c1ccc2c(c1)C1(NN=C(c3ccccc3)S1)C(=O)N2 (stereo not given),active: 25.9 µM,
COc1ccc(COc2cc(-c3cccc(OC)c3)nc3ccc(NC(=O)c4ccccc4)cc23)cc1,"inconclusive [cytotoxic, single point]",
N=c1sccn1CC(=O)N1N=C(c2ccc(Cl)cc2)CC1c1ccco1 (stereo not given),active: 32.6 µM,
COc1c(N2CCN(C(=S)NCc3ccccc3)C(C)C2)c(F)cc2c(=O)c(C(=O)O)cn(C3CC3)c12 (stereo not given),"inconclusive [cytotoxic, single point]",
N#C/C(=C\Nc1ccc2cn[nH]c2c1)c1nc(-c2ccccc2)cs1,"inconclusive [cytotoxic, single point]",
O=C(CSc1n[nH]c(-c2ccncc2)n1)Nc1ccc(Cl)c(Cl)c1,,inactive: -14.5%
Cc1ccc(C(=O)CC(=O)COc2ccc(Cl)cc2C)cc1,"inconclusive [cytotoxic, partial curve]",
Cc1cc([N+](=O)[O-])nn1CCCC(=O)NCc1ccc(F)cc1,,inactive: 18.1%
COc1ccc(C2SCC(=O)N2Cc2ccccc2)cc1 (stereo not given),,inactive: 1.49%
